In PubChem BioAssay AID1478 (National Center for Advancing Translational Sciences (NCATS), 2009):
Where “and” joins values, the source holds several entries; their conditions need not be identical. Equal values may be shown once. Hit rate of the full screen: of about 200,000 compounds, about 860 (0.43%) were called active. Calls come from the whole dose curve; as a rule, active = well fitted inhibition curve with a large enough effect; inconclusive = small, poorly fitted or top-dose-only effect; inactive = flat fitted curve, though single readings scatter. The list shows a part of the results, in another mix than the full data.

What follows are molecules tested against Cruzipain (Trypanosoma cruzi) (UniProt P25779) (assay: qHTS Assay for Promiscuous and Specific Inhibitors of Cruzain (with detergent)). Settings: purified cruzain, Z-FR-AMC fluorescence, 0.01% Triton.
Experimental: Cruzain (3.4.22.51) is a cysteine protease from the tropical parasite Trypanosoma cruzi. Dual qHTS experiment was performed against the NCGC compound collection in order to 1) identify novel inhibitors of the enzyme and 2) profile the compound collection for promiscuous inhibitors operating via colloidal aggregation (by performing detergent-free and detergent-containing comparison screens). Cruzain was assayed by the use of fluorogenic coumarin-based substrate Z-FR-AMC: proteolytic cleavage releases AMC, whose fluorescence is measured at 360 nm excitation and 450 nm emission. Purified cruzain was supplied by the labs of Prof. James McKerrow and Brian Shoichet, UC San Francisco.
This assay had 0.01% Triton X-100 concentration. See also releated assay "qHTS Assay for Promiscuous and Specific Inhibitors of Cruzain (without detergent)" with 0.00005% Triton X-100.
See following references for additional details:
Assay Provider: Shoichet, Brian; University of California, San Fancisco
Screening Center PI: Austin, C.P.
Screening Center: NIH Chemical Genomics Center [NCGC]
Buffer: 100 mM Sodium Acetate, pH 5.5, 5 mM DTT, Triton X-100 concentration: 0.01%.
Buffer in columns 3 and 4 as negative control (no enzyme).
Substrate solution: 2 uM final concentration of Z-FR-AMC (catalog number I-1160, Bachem) dispensed throughout the plate.
Enzyme: 1.5 nM Cruzain final concentration in columns 1, 2, 5-48. Column 1 is neutral (100% activity). Column 2 contained titration of covalent inhibitor K11777, starting concentration 1 mM, then 1:2 dilution in duplicate).
Three uL of enzyme or buffer were dispensed to 1536-well Greiner black solid bottom plates. Compounds and controls (23 nL) were transferred via Kalypsys PinTool. The plates were incubated for 15 min at room temperature, and then 1 uL of substrate solution was added to start the reaction. The plates were immediately transferred to and read 4 times every 30 seconds for 2 min on ViewLux High-throughput CCD imager (Perkin-Elmer) using 360 nm excitation and 450 nm emission fluorescence protocol. The fluorescence intensity difference between the third and the first time points (time lapse of 60 seconds) was used to compute reaction progress.
Note: nearly all actives have a fitted effect of over 40% in size.
Potency is the fitted concentration of half-maximal effect.

UniProt P25779, sequence (P25779 whole entry, looked up): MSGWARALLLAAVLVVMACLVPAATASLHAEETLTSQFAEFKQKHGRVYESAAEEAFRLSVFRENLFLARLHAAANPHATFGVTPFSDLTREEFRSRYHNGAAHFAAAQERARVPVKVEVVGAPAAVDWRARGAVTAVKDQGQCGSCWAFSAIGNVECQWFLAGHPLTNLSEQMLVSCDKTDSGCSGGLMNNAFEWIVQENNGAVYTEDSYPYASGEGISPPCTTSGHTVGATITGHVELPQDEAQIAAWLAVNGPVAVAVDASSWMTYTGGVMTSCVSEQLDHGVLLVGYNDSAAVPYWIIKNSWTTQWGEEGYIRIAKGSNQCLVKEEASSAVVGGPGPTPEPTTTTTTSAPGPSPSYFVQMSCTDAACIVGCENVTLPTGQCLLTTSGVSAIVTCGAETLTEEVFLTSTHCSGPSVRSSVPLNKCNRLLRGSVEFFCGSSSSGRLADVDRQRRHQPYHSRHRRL

SMILES	Potency	max response, negative = inhibition
CCc1cc2c(=O)[nH]c(-c3ccncc3)nc2s1	active: 8.91 µM	–
CCOC(=O)c1sc(NC(=O)COC(=O)CNC(=O)C2CCCCC2)c(C(=O)OCC)c1C	active: 2.24 µM	–
O=c1cc(N2CCOCC2)oc2c(-c3ccccc3)cccc12	–	inactive: -7.16%
CCOC(=O)c1sc(-c2ccc(OC)cc2)cc1NC(C)=O	–	inactive: 41.6%
COc1cc(OC)c2c(C)cc(=O)oc2c1	–	inactive: 68.4%
Cc1cc(=O)oc2cc(OC(=O)c3nn(C(C)C)c(=O)c4ccccc34)ccc12	–	inactive: 36%
Cc1cccc(-n2c(=O)c(C#N)cc3c(=O)n4ccccc4nc32)c1	–	inactive: 41.2%
COc1cc([C@H]2Oc3cc([C@H]4Oc5cc(O)cc(O)c5C(=O)[C@@H]4O)ccc3O[C@@H]2CO)ccc1O	–	inactive: -16.6%
O=C1c2ccccc2C(=O)c2c(O)c(O)cc(O)c21	–	inactive: -24.2%
O=C(O)C1=CC(=C(c2ccc(O)c(C(=O)O)c2)c2ccc(O)c(C(=O)O)c2)C=CC1=O	–	inactive: -23.9%
O=C(Nc1cccc(O)c1)c1noc2c1CCc1ccccc1-2	–	inactive: -27.9%
CCOC(=O)c1sc2c(c1C)C(c1cccs1)C1=C(CCCC1=O)N2 (stereo unspecified)	–	inactive: 32.6%
Cc1ccc(S(=O)(=O)N[C@H](C(=O)Oc2ccc3c(C(F)(F)F)cc(=O)oc3c2)c2ccccc2)cc1	–	inactive: -22.6%
CC[C@@H]1Cc2cc(O)ccc2C2=C1c1ccc(O)cc1C[C@H]2CC	–	inactive: 48.2% and inactive: 6.79%
Cc1ccc2sc(-c3ccc(N)cc3)nc2c1	–	inactive: 35.7%
O=C(COc1ccc2ccccc2c1)Nc1cccc(C(=O)Nc2ccccc2C(=O)O)c1	active: 31.6 µM	–
Cn1c(N)c(C(=O)COC(=O)c2cc(-c3ccco3)nc3ccccc23)c(=O)n(C)c1=O	–	inactive: -11.7%
O=C(c1ccc(COc2ccc(F)cc2)o1)n1cccn1	active: 15.8 µM	–
CCn1c(=N)c(C(=O)NC2CCCCC2)cc2c(=O)n3cccc(C)c3nc21	–	inactive: 91.7%
Cc1cc(-c2ccc(N=Nc3cc(S(=O)(=O)O)c4ccccc4c3N)c(C)c2)ccc1N=Nc1cc(S(=O)(=O)O)c2ccccc2c1N	active: 7.94 µM	–
O=C1NN(c2ccc(Cl)c(Cl)c2)C(=O)/C1=C/c1cccc(OC(=O)c2cccs2)c1	active: 20 µM	–
CC[C@@H](CO)NC(=O)[C@@H]1C=C2c3cccc4c3c(cn4C)C[C@H]2N(C)C1	–	inactive: -25.5%
CCN(CC)C(=O)N[C@H]1C[C@@H]2c3cccc4[nH]cc(c34)C[C@H]2N(C)C1	–	inactive: 0.583%
CC(C)C(=O)Nc1nnc(SCC(=O)N2c3ccccc3CC2C)s1 (stereo unspecified)	active: 10 µM	–
CCn1c(C(=O)Nc2cc(Cl)ccc2C)cc2sc(Cl)cc21	–	inactive: 39.3%
O=C(Cn1c2ccccc2c(=O)c2ccccc21)Nc1cccc(F)c1	active: 0.794 µM	–
